Measured values published in PubChem BioAssay AID1159614 (National Center for Advancing Translational Sciences (NCATS), 2016).
Screen size: about 45,000 compounds; about 65 (0.1%) were called active. Calls come from the whole dose curve; as a rule, active = well fitted activation curve with a large enough effect; inconclusive = small, poorly fitted or top-dose-only effect; inactive = no such curve, though single readings can be large or run the other way. Some of the results follow.

biological target: Galactocerebrosidase (Homo sapiens) (UniProt P54803); experiment: A Novel Cell-Based Assay to Identify Small Molecules for B -Galactocerebrosidase; settings: 145M-Twi-hGALC-G270D cells (Twitcher mouse brain line with human GALC G270D), HMU-beta-Gal fluorescence, 48 h; series mostly up to 57.5 µM; activation: at the top concentration; note: 0% is about no effect; nearly all actives have a fitted effect of over 65% in size
Procedure, shortened: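 Fluorogenic HMU-b-Gal hydrolysis (0.1 mM final, pH 5.2 citrate-phosphate with 1 mg/mL sodium taurocholate; carbonate stop buffer) measures mutant GALC activity after compound treatment of live 145M-Twi Twitcher brain cells stably carrying human GALC-G270D, with wild-type GALC line alongside; activation sought.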

Sequence of UniProt P54803 (P54803 whole entry, looked up): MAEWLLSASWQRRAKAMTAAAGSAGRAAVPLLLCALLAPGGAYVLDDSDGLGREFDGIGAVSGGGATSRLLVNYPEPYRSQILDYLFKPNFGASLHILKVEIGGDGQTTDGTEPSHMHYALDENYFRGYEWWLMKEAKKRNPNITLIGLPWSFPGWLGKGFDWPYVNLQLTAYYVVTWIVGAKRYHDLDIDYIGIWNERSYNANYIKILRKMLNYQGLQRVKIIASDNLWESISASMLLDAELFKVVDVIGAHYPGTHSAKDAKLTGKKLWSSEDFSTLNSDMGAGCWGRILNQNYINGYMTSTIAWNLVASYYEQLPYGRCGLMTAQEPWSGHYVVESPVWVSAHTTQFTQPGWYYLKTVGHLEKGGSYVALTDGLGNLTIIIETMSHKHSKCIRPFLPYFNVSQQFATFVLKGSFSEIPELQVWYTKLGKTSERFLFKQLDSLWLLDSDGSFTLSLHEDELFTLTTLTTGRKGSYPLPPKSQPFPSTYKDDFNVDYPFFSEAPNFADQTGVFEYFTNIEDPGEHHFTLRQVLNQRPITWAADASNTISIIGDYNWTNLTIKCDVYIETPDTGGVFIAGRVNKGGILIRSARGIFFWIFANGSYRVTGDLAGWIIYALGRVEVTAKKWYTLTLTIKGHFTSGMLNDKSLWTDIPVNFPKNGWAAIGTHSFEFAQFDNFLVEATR

activation, inactive:
Cc1ccc(C)c(N2CCN(C(=O)CCS(=O)(=O)c3cc(Br)cc4c3N(C(=O)C3CC3)CC4)CC2)c1 -14.7%, CCC(=O)N1CCc2cc(CNS(=O)(=O)c3ccc(C(C)C)cc3)ccc21 -21.3%, COc1cc2nc(NCCc3ccccc3)n3nc(-c4cccnc4)nc3c2cc1OC -15.1%, CCOC(=O)c1c(NC(=O)/C=C/c2ccc(OCC)cc2)sc(C(C)=O)c1C -3.99%, Cc1nn(-c2ccccc2)c2sc(C(=O)Nc3cccc(Cl)c3)cc12 6.57%, COC(=O)c1ccc2c(=O)n(CCCCCC(=O)N3CCN(c4cc(C)ccc4C)CC3)c(=O)[nH]c2c1 -2.74%, CCCSc1ncc(Cl)c(C(=O)N2CCN(c3cccc(Cl)c3)CC2)n1 0.131%, CCOc1ccc(NC(=O)CC2C(=O)N(c3ccc(OC)cc3)C(=O)N2C2CCCCC2)cc1 (stereo unspecified) -17.1%, COc1cc(NC(=O)CCc2c(C)nc3c(-c4ccc(F)cc4)c(C)nn3c2C)cc(OC)c1OC -13.1%, COc1ccc(CNC(=O)C(Cc2ccccc2)NS(=O)(=O)c2ccc3c(c2)CCN3C(C)=O)cc1 (stereo unspecified) 4.62%, O=C(C1CCC(Cn2c(=O)c3sccc3n(Cc3cccc(F)c3)c2=O)CC1)N1CCOCC1 (stereo unspecified) -10.3%, N#C/C(=C/c1ccccc1Cl)c1nc2ccccc2c(=O)[nH]1 -6.58%, CCCCCCNC(=O)c1c[nH]c2ccc(S(=O)(=O)N(C)c3ccc(C(C)C)cc3)cc2c1=O -5.45%, Cc1ccc(Cl)cc1N(C)C(=O)c1cc2c(Cl)nc3ccccc3c2s1 -33.3%, COc1ccc(N2CCN(C3(c4ccccc4)C(=O)c4ccccc4C3=O)CC2)cc1 -11.5%, COc1ccc(N2C(=O)CSC23C(=O)N(CC(=O)Nc2ccccc2F)c2ccccc23)cc1 (stereo unspecified) -19.2%, Clc1cccc(-c2nc3ccccn3c2Nc2ccc3c(c2)OCCO3)c1 10.9%, COC(=O)c1ccc(Nc2nc(-c3ccccc3Cl)nc3ccccc23)cc1 -6.26%, Cc1cccc(C(=O)Nc2cc3nn(-c4ccc(C(C)C)cc4)nc3cc2C)c1 -3.5%, Cc1cc2nn(-c3ccc(F)cc3)nc2cc1NC(=O)c1cccc([N+](=O)[O-])c1C -7.78%, COc1cccc(OC(=O)CSc2nnc(-c3cccs3)o2)c1 1.04%, CC(=O)Nc1ccc(Nc2nc3c(S(=O)(=O)c4cc(C)ccc4C)nnn3c3ccsc23)cc1 -1.25%, Cc1ccc(N(C)C(CNS(=O)(=O)c2ccccc2)c2ccccc2)cc1 (stereo unspecified) -7.82%, COc1ccccc1NC(=O)CSc1ccc(-c2ccccn2)nn1 -12.5%, COc1cccc(CNC(=O)Cn2nc(-c3ccc(C)cc3)ccc2=O)c1 -16.5%, Cc1cc(OC(C)C(=O)N2CCC(c3nc4ccccc4o3)CC2)ccc1Cl (stereo unspecified) 0.103%, COc1ccc(-n2ccnc2SCC(=O)Nc2cccc(OC)c2)cc1 2.44%, CCCCN(C)S(=O)(=O)c1ccc(NC2=NS(=O)(=O)c3ccccc32)cc1 -9.72%, Cc1ccc(CNC(=O)C2CCC(CNS(=O)(=O)c3ccc(C)cc3)CC2)cc1 (stereo unspecified) -14.2%, Cc1ccc(NC(=O)Cn2cc(C(=O)c3ccco3)c3ccccc32)cc1C -14.7%, CCn1ccc2cc(S(=O)(=O)N3CCCN(C(=O)Nc4cccc(SC)c4)CC3)ccc21 -27%, CCCNC(=O)C1CCN(C(=O)N2CC(C)Oc3ccccc32)CC1 (stereo unspecified) -14.5%, COc1ccc(-c2ccc(CNCCCSc3nnnn3C)o2)cc1Cl -10.7%, COc1ccc(-n2ncc(C(=O)N3CCN(C(=O)c4ccco4)CC3)c2C2CCN(C(=O)OC(C)(C)C)CC2)cc1 -2.76%, CC(C)Cc1ccc(S(=O)(=O)NCc2nc3cccnc3n2Cc2ccccc2)cc1 7.48%, Cc1ccc(-n2nc3c(N4CCC(C(=O)NC5CCCCC5)CC4)nnc(C)c3c2C)cc1 -3.69%, Cc1cc2oc(C(=O)Nc3ccc(S(=O)(=O)N4CCC(C)CC4)cc3)cc(=O)c2cc1C 7.78%, Cc1ccc(/C=C/C(=O)N2CCC(c3nc4ccccc4o3)CC2)cc1 0.678%, COc1ccc(NC(=O)c2c(NCc3ccc(OC)c(OC)c3OC)sc3c2CCC3)c(OC)c1 -17.5%, CCCCCOc1ccccc1CN1C(=O)C(=O)c2cc(C)ccc21 -33.6%, CC1=C(c2ccc(C)c(C)c2)S(=O)(=O)N=C1N1CCC(C(=O)NCc2ccccc2C)CC1 -10.4%, Cc1cccc(-c2noc(-c3ccc(NCc4ccccc4)c([N+](=O)[O-])c3)n2)c1 2.72%, COc1ccccc1N1CCN(CCCNC(=O)c2nnc(Cc3ccc(F)cc3Cl)o2)CC1 -8.55%, Cc1ccc(NC(=O)CN2C(=O)COc3ccc(S(=O)(=O)N4CCOCC4)cc32)cc1N(C)C -18.1%, Cc1ccc(N(C)S(=O)(=O)c2ccc(-c3coc(C)n3)cc2)cc1 -14.1%, COc1cc(C2C(C(=O)Nc3ccc(Cl)cc3)=C(C)Nc3nc(SC)nn32)cc(OC)c1OC (stereo unspecified) -8.05%, Cc1nn(CC(=O)NCCc2ccccc2)c(=O)c2nn(-c3ccccc3)c(C)c12 -8.89%, CC1=C(C(N)=O)C(c2cccc(Br)c2)n2nc(SCc3ccccc3Cl)nc2N1 (stereo unspecified) -4.05%, CCc1nc2ccc(C(=O)N3CCN(c4cc(C)ccc4C)CC3)cc2nc1CC -20.9%, CCOc1ccc(CCNC(=O)c2cc3sccc3n2CC)cc1OCC -2.56%, Fc1ccc(CSc2nncn3c2cc2occc23)c(Cl)c1 -4.02%, Cc1cc(C)c2oc(-c3ccc(NC(=O)COc4ccccc4C)cc3)nc2c1 -12.1%, CCOCCCn1c(SCC(=O)NCc2ccccc2)nc2c(sc3ccccc32)c1=O -5.91%, COc1ccc(NC(=O)c2nnn(CC(=O)Nc3cccc(C)c3C)c2N)c(OC)c1 -12.7%, Cc1cccc(CCNC(=O)c2cc3c(=O)[nH]c4ccc(C)cc4c3s2)c1 -25.9%, Clc1ccc2c(c1)CCc1cccnc1C2=C1CCNCC1 -14.1%, COc1ccccc1CNc1nc2ccccc2c2nc(-c3cccc(C)c3)nn12 -8.98%, COc1ccc(-c2nc3sc(CCNC(=O)C(=O)Nc4cc(F)ccc4F)c(C)n3n2)cc1 -15.8%, COc1cc([N+](=O)[O-])ccc1NC(=O)N1CCC2(CC1)Nc1ccccc1-n1cccc12 -10.4%, COc1ccc2cc3cc(C(=O)N4CCN(c5cccc(C(F)(F)F)c5)CC4)sc3nc2c1 6.38%, CCn1cc(C(=O)NCCN(CC(C)C)CC(C)C)c(=O)c2cc(S(=O)(=O)N(C)C3CCCCC3)ccc21 -18.2%, CCOc1ccc(C(=O)Nc2cccc(NC(=O)c3ccc(Cl)cc3Cl)c2)cc1 -2.63%, Cc1cccc(NC(=O)CN(C)S(=O)(=O)c2ccc3c(c2)CCC(=O)N3)c1C -22.6%, O=C1NCC2(CCN(CCc3ccccc3)CC2)O1 -5.54%, CCCCOc1ccccc1Cn1c(=O)sc2ccccc21 -16%, CCOc1ccc(CN2C(=O)C(=O)c3cccc(C)c32)cc1OC -20%, Cc1cccc(Nc2cc(C)nc(-n3nc(C)cc3C)n2)c1 -8.54%, Cc1c(C(=O)Nc2ccc(F)cc2)oc2ccc(S(=O)(=O)N3CCCCCC3)cc12 -2.12%, CCc1cccc(N2C(=O)CS(=O)(=O)C23C(=O)N(Cc2ccccc2)c2ccc(C)cc23)c1 (stereo unspecified) -25.9%, Cc1ccc(Nc2nc3ccccc3nc2-n2nc(C)cc2C)c(Cl)c1 -10.2%, Cc1cccc(C(=O)N2c3ncnn3C3(CCCCC3)[C@@H]3CCCC[C@@H]32)c1 -10.5%, CSc1ccc(CNC(=O)c2sc3ncnc(N(C)C4CCCCC4)c3c2C)cc1 -3.19%, Cc1cc(C)c(NC(=O)C2CCN(C(=O)N3CCOc4ccccc43)CC2)c(C)c1 -18.5%, COc1cc2c(cc1NC(=O)COc1ccc(Br)cc1)oc1ccccc12 -23.6%, COC(=O)c1ccc2c(=O)n(CCc3ccc(S(N)(=O)=O)cc3)c(SCC(=O)C(C)(C)C)nc2c1 -16.5%, COc1ccc(-c2cc(C(F)(F)F)n3ncc(-c4ccccc4)c3n2)cc1 -25.1%, CCOC(=O)c1cccc(NS(=O)(=O)c2ccc(-c3coc(C)n3)cc2)c1 -10.4%, CSc1ccc(/C=C/c2nc3ccccc3n2S(=O)(=O)c2ccc(Br)cc2)cc1 -7.27%, Cc1ccc(N2CCN(Cc3nnc(-c4ccccc4F)o3)CC2)c(C)c1 0.325%, Cc1ccc(-c2c3c(=O)n(C)c(=O)n(C)c3c3cnc4ccccc4n23)cc1 -22.4%, Cc1ccc(S(=O)(=O)CC(=O)Nc2nc3c(C)cccc3s2)cc1 -18.7%, O=C(Nc1ccc(Cl)c(C(F)(F)F)c1)c1nc2ccccc2nc1N1CCCCC1 -13%, COc1ccc(-n2nnc(-c3nsc(NC(=O)c4cccc(C)c4)n3)c2C)cc1OC -7%, COc1ccccc1Nc1nc(N)nc(N)c1S(=O)(=O)c1ccccc1 -12.5%, COc1ccc(-c2[nH]c3c(c2-c2c(-n4cccc4)n(C)c(=O)[nH]c2=O)c(=O)[nH]c(=O)n3C)cc1F -6.58%, COc1cccc(NC(=O)/C(C#N)=C/c2c(C)n(Cc3ccccc3)c3ccccc23)c1 -20.1%, CCOC(=O)c1c(C)[nH]c(C)c1S(=O)(=O)N1CCCC(C(=O)Nc2cccc(CC)c2)C1 (stereo unspecified) -14.4%, CC(=O)N1CCc2cc(Br)cc(S(=O)(=O)NCCc3cccc(C)c3)c21 -11.5%, COC(=O)c1ccccc1NC(=O)c1nn(C)c2c1COc1ccccc1-2 5.9%, CCOCCCNC(=O)c1cn(CC(C)C)c(=O)c2c1c1ccccc1n2C -9.85%, COc1cccc(NC(=O)Cn2nnc(C(=O)NCc3ccc4c(c3)OCO4)c2N)c1 -9.01%, Cn1c(SCC(=O)Nc2nc3ccccc3s2)ncc(C(=O)Nc2ccc(Cl)cc2)c1=O -6.86%, CCN1CCN(c2ncc3c(n2)CCN(Cc2cccc(F)c2F)C3)CC1 -9.33%, CSc1ncc(Cl)c(C(=O)N(C)c2ccccc2)n1 -25.6%, Cc1cc(C)c(NC(=O)CSc2nc(=O)n(Cc3cccnc3)c3c2CCC3)c(C)c1 1.77%, CN(C)c1cc(NC(=O)CNC(C)(C)C)c(O)c2c1C[C@@H]1C[C@H]3[C@H](N(C)C)C(=O)C(C(N)=O)=C(O)[C@@]3(O)C(=O)C1=C2O -16.5%
